Results as given in article PMC4336329 (PLoS ONE, 2015).
Among all 310,000 compounds or so, about 2,200 (0.71%) showed an effect of 50% or more. The effect is printed as a negative number. This is one part of the list.

target: human ether-à-go-go-related gene (hERG) potassium channel (human, UniProt Q12809); experiment: primary screen, population patch clamp on CHO cells stably expressing hERG
Sequence (Q12809 whole entry, looked up): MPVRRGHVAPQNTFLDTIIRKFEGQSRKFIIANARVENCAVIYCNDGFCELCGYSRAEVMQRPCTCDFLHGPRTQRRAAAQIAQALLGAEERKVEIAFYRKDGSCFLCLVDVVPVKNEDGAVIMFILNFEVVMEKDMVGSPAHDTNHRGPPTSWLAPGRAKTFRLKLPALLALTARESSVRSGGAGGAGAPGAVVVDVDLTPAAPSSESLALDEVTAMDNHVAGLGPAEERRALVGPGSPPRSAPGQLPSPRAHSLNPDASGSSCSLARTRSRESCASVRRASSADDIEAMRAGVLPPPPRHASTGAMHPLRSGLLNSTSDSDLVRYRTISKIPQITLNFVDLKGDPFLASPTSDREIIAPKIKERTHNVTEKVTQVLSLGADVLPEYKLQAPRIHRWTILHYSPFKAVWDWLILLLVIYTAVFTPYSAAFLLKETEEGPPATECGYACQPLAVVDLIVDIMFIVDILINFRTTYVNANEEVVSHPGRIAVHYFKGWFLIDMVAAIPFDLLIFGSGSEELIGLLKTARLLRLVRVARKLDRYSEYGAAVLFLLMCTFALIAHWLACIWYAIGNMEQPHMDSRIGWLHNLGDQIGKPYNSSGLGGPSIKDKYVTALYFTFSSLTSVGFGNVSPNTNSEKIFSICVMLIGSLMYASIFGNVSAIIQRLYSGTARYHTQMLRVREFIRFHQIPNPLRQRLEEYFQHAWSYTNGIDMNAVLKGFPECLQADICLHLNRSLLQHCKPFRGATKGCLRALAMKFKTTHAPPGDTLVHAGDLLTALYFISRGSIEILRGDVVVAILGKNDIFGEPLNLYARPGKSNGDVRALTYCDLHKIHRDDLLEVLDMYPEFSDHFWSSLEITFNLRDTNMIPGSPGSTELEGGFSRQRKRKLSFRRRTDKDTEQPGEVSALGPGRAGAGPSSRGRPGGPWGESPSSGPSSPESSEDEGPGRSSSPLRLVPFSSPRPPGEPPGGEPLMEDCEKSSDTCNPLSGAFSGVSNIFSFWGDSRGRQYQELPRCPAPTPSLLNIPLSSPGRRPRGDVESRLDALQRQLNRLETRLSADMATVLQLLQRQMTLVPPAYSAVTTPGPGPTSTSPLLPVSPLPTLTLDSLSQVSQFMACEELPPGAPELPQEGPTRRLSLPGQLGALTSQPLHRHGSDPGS

SMILES | hERG current change (%, negative = inhibition) at 1uM [%]
C[C@H](NC(=O)OC(C)(C)C)C(=O)N/N=C/c1ccc2nccnc2c1 | 18
CC(C)c1ccc(-c2nc(N3CCCC3)nc3n[nH]c(N)c23)cc1 | 7.84
COC(=O)c1c(NC(=O)CC2SC(N)=NC2=O)sc(C)c1C (stereo not shown) | 12
COC(=O)CCC(=O)OC1(C)C(=O)C=C2C=C(C3CC3)N(c3ccc(CO)cc3)C=C2C1=O (stereo not shown) | 20.2
CC(=O)n1cc(C(C[N+](=O)[O-])SCCN)c2ccccc21.Cl (stereo not shown) | 10.7
Cc1ccc(CNS(=O)(=O)c2ccc3c(c2)CCN3C(=O)C2CCC2)cc1 | 11.9
NC(=O)Cc1ccc(C(=O)c2ccc(Cl)cc2Cl)s1 | 11.9
CC1CCCN(C(=O)c2cc3c(-c4ccc(Cl)cc4)nn(C)c3s2)C1 (stereo not shown) | 0.405
COC(CNC(=O)c1cccc2c1C(=O)N(Cc1cccnc1)C2)OC | 10.1
CCOC(=O)c1ccc(-c2ccc(/C=N/NC(=O)c3cncc(Br)c3)o2)cc1 | 13.1
CCO[C@@H]1OC(C(=O)N2CCN(Cc3ccccc3)CC2)=C[C@H](c2ccccc2)[C@H]1CCCO | 9.19
COc1ccccc1CNC(=O)Cc1ccc(C)cc1 | 3.1
Nc1ccc(-c2cnc[nH]2)cc1[N+](=O)[O-] | 14.9
CC(=O)NCCc1nc2cc(NC(=O)c3ccc([N+](=O)[O-])cc3)ccc2n1C | 4.1
Cc1ccc(S(=O)(=O)N2CCC(=O)N(C(COCc3ccc(Cl)cc3Cl)Cc3ccccc3)CC2)cc1 (stereo not shown) | 12.9
Cc1ccccc1NS(=O)(=O)c1nnc(NC(=O)c2ccccc2F)s1 | 20.3
CCOc1ccc(/C=N/NC(=O)CSc2ccccn2)cc1O | 2.12
CC1=NNC(=O)C1CCC(=O)N/N=C/c1ccccc1 (stereo not shown) | 11.5
COc1ccc(/C=C(/C#N)C(=O)Nc2cccnc2)cc1OC | -1.31
Cc1cc(C)cc(NC(=O)N2CCC(NC(=O)c3ccc(F)cc3)CC2)c1 | -2.93
Cc1cc(C)nc(N(C#N)Cc2ccc([N+](=O)[O-])cc2)n1 | -5.55
Cc1ccc(OCc2nc(C#N)c(N3CCCCC3)o2)cc1 | 12.7

SMILES | hERG current change (%, negative = inhibition) at 1uM [%]
COC(=O)c1cc(NC(=O)Cc2cc(OC)c(OC)c(OC)c2)cc(C(=O)OC)c1 | 13.4
OCCCc1ccc(O)c(O)c1 | -3.41
O=S(=O)(c1cccc2nsnc12)N1CCNCC1 | 6.6
CC1CCCCN1CCNC(=O)c1ccc2c(=O)n(Cc3ccc(Cl)cc3)c(=S)[nH]c2c1 (stereo not shown) | -5.71
COc1ccc(C(=O)COc2ccccc2N2C(=O)C3C4C=CC(C4)C3C2=O)cc1 (stereo not shown) | 3.84
O=S(=O)(NCCc1cn2ccccc2n1)c1ccc2c(c1)CCCC2 | -3.09
CN=C(Cc1ccccc1)C1=C(O)CC(C)(C)CC1=O | 14.8
COc1ccc(CNC(=O)CN(c2ccc(OC)cc2)S(=O)(=O)c2c(C)nn(C)c2C)cc1 | 0.558
O=C(CCNC(=O)N1CC(=O)Nc2ccccc21)Nc1cccc(Cl)c1 | 14.3
CCN(CC)CCn1c(=S)[nH]c2cc(Cl)ccc2c1=O | -45.6
COc1cc(C(=O)NCC(=O)N2CCN(S(=O)(=O)c3cc(C)ccc3C)CC2)cc(OC)c1OC | 3.56
O=c1[nH]ncc(NCCCO)c1Cl | 8.27
CC1CCCN(S(=O)(=O)c2cccc3nonc23)C1 (stereo not shown) | 11.5
C#CCSc1nc(N)c2c(n1)OC(N)=C(C#N)C2c1cccnc1 (stereo not shown) | 4.59
CCc1ccc(NC(=O)C2CCC(CNC(=O)[C@@H]3Cc4ccccc4CN3)CC2)cc1 (stereo partly shown) | 12.1
O=C(Nc1cc(S(=O)(=O)N2CCOCC2)ccc1N1CCOCC1)c1cn2ccccc2n1 | -7.67
CCOC(=O)c1ccc(S(=O)(=O)NNC(=O)COc2cccc(C)c2)cc1 | 23.3
Cc1c(Cl)cccc1NC(=O)Nc1ccccc1C(N)=O | 11.6
Cc1nn(Cc2c(Cl)cccc2Cl)c(C)c1NC(=O)CCCn1nc(C)c([N+](=O)[O-])c1C | 5.96
CC(NC(=O)c1ccc(Br)cc1)c1ccc2c(c1)CCCC2 (stereo not shown) | 5.34
Cc1ccc(Cl)cc1N1CCN(S(C)(=O)=O)CC1 | 4.78
O=C(CN(c1cccc([N+](=O)[O-])c1)S(=O)(=O)c1ccccc1)N(Cc1ccccc1)Cc1ccccc1 | 8.33

SMILES | hERG current change (%, negative = inhibition) at 1uM [%]
CC(C(=O)OCn1nnc2ccccc2c1=O)N1C(=O)c2ccccc2C1=O (stereo not shown) | 4.25
CCOc1cc2[nH]c(=S)n(Cc3ccc(C(=O)NCCCN4CCOCC4)cc3)c(=O)c2cc1OCC | 14.9
COc1cc2[nH]c3c(=O)n(CCN4CCOCC4)cnc3c2cc1OC | -4.6
O=C1/C(=C\c2ccccc2Cl)SC(=S)N1CCC(=O)N1CCCc2ccccc21 | 10.9
COC(=O)C1=NN(C(=O)c2ccc(C)cc2)C(O)(c2ccc(Cl)cc2)C1 (stereo not shown) | 6.18
O=C1C2C3C=CC(C2C(=O)N1c1nccs1)C1C(=O)N(c2nccs2)C(=O)C31 (stereo not shown) | 13
Cc1cc(N2CCC(C(N)=O)CC2)nc(-c2ccccc2)n1 | 1.01
CCn1nnnc1SCC(=O)NC1Cc2ccccc2C1 | 15.4
CC(=O)NC1(C(F)(F)F)C(=O)Nc2c1c(=O)[nH]c(=O)n2CCc1ccccc1 (stereo not shown) | 13.6
O=C(O)COCC(=O)N1CCN(C(c2ccccc2)c2ccccc2)CC1 | 4.78
CSc1ccccc1OCc1cc(C(=O)N2CCN(c3ccccc3)CC2C)no1 (stereo not shown) | 8.41
O=C(O)c1cn[nH]c1-c1cccc([N+](=O)[O-])c1 | 15.8
CC(C(O)C12CC3CC(CC(C3)C1)C2)N1CCCCC1.Cl (stereo not shown) | 14.8
CCC(C)NC(=O)NC1C(NC(=O)NC(C)CC)N(C)C(=O)N1C (stereo not shown) | 14.2
CCCCNC(=S)N(C)/N=C/c1ccccc1F | 8.52
CC(C)CCNC(=O)CN(Cc1ccc2c(c1)OCO2)C(=O)CCC(=O)Nc1ccccn1 | -32.9
CCCCNC(=O)c1onc(CSc2cc(C)cc(C)c2)c1C(=O)NCCCC | 12.6
N#Cc1c(F)cccc1N1CCN(Cc2ccc3c(c2)OCO3)CC1 | -36.9
NC(=O)CNc1n[nH]c(=S)[nH]c1=O | 12.7
OCC1CCCCN1C(=S)Nc1cccc(Cl)c1 (stereo not shown) | -0.734
COc1ccccc1NC(=S)N1CCn2cccc2C1c1cccnc1 (stereo not shown) | 1.4
Cc1cc(C)cc(NC(=O)CCn2c(=S)[nH]c3ccccc3c2=O)c1 | 9.17

SMILES | hERG current change (%, negative = inhibition) at 1uM [%]
COc1ccc2cc(C(C)C(=O)N3CCC(C(N)=O)CC3)ccc2c1 (stereo not shown) | 3.43
NC(=O)c1nsc(C(=O)N(Cc2cccnc2)C(C(=O)NCc2ccc(F)cc2)c2ccc(F)cc2)c1N (stereo not shown) | 19.2
CCc1ccc2oc(=O)cc(CN3CCN(CCO)CC3)c2c1 | 11.4
O=C(COC(=O)Cc1ccsc1)NC(c1ccccc1)c1ccccc1 | 15.3
O=C(CC1NC(=S)NC1=O)c1ccc(Cl)cc1 (stereo not shown) | 12.5
O=C(CSc1n[nH]c(-c2ccccc2Br)n1)NCCN1C(=O)CSC1=O | 18.9
Cc1ccc(S(=O)(=O)CCC(=O)OCC(=O)c2ccc(F)cc2)cc1 | 6.33
Fc1ccc(CSc2ccc(-c3cccs3)nn2)cc1 | 11.7
O=C(Cc1sc(-c2ccccc2)nc1-c1ccccc1)Nc1ccc(Cl)cc1 | 2.24
NC1=NC(=Nc2ccc(S(=O)(=O)N3CCOCC3)cc2)c2ccccc21 | 5.78
CC(=O)C1=C(O)C(=O)N(CCc2c[nH]c3ccccc23)C1c1cccc(O)c1 (stereo not shown) | 8.05
CCN1CCN(C(=S)c2ccc(O)cc2)CC1 | 9.02
COc1ccc(CCNC(=O)C2CCN(C(=O)NC3CCCCC3)CC2)cc1 | 10.2
O=C(O)c1ccc(N/N=C/c2ccc(C(F)(F)F)cc2)cc1.O=S(=O)(O)O | 5.07
CCN(CC)S(=O)(=O)c1cccc(C(=O)N2CC(O)CC2C(=O)O)c1 (stereo not shown) | -7.03
COCC1CCCCN1Cc1cn[nH]c1-c1ccc(OC)cc1OC (stereo not shown) | 2.68
Cc1ccc(NCC(=O)c2ccc(C)cc2)cc1 | 11.5
Cc1ccc(NC(=O)CN2C(=O)c3ccccc3S2(=O)=O)c(C)c1 | 8.93
COc1ccc(Cl)cc1NC(=O)CSc1nc(N2CCOCC2)nc(N2CCOCC2)n1 | 11
O=C(c1cnc2ccccn2c1=O)N1CCCc2ccccc21 | 2.62
O=C(O)c1ccc(-c2ccccc2)[nH]c1=O | 6.74
O=C(O)c1cc(-c2ccc(/C=C3\NC(=O)N(c4ccc(Cl)cc4)C3=O)o2)ccc1Cl | 13.6
